In the supplement of paper PMC10369915:
The list shows a part of the results. Cut-off read from the data, not from the text of the source: active = 3.2 or more and inactive = the rest. The signal is at background level for most entries.

Molecular target: SHP2 C-SH2 domain E139D
Assay: enrichment score (SH2-bound / input frequency) (ratio); bacterial display of known human phosphotyrosine sites (pTyr-Var adds point mutants) read by sequencing; higher = stronger binding; tyrosines were phosphorylated by kinases first
Settings: peptide library: pTyr-Var
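Note: displayed peptides selected on beads carrying the immobilized SH2 domain, with library peptides lacking any tyrosine serving as negative controls.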

Enrichment score, inactive:
SKHRLYSDLQT [PTCHD1_Y84] 1.87, RRYVYYYSYLL [PTEN_Y177] 0.311, QRRYVYYYSYL [PTEN_Y176] 0.646, PSQRHYVYYYS [PTEN_Y174_R173H] 1.87, SKHHLYSDLQT [PTCHD1_Y84_R82H] 1.5, PNQRRYVYYYS [PTEN_Y174_S170N] 0.537, VMIYAYLLHRG [PTEN_Y138_C136Y] 0.703, EALDFCGEVRT [PTEN_Y155_Y155C] 1.16, SDVDLYQVRIA [PSMD9_Y70_T74I] 0.724, PSQRPYVYYYS [PTEN_Y174_R173P] 1.09, QRHYVYYYSYL [PTEN_Y176_R173H] 2.05, QRCYVYYYSYL [PTEN_Y176_R173C] 0.884, PSQRRNVYYYS [PTEN_Y174_Y174N] 0.555, PDDPSYSLVDD [PSTPIP2_Y323_N322S] 0.433, IMICAYLLHRG [PTEN_Y138_V133I] 1.91, PASWTYVRWFD [PTDSS1_Y274] 1.29, EALDFYGEVRI [PTEN_Y155_T160I] 0.955, PNQRRYVFFFS [PTEN_Y174_S170N_YF] 1.01, SSTAMYSAAGR [PSMB1_Y8_P11A] 0.465

Molecular target: SHP2 C-SH2 domain wild-type
Assay: as above
Settings: peptide library: pTyr-Var

Enrichment score, inactive:
SKHRLYSDLQT [PTCHD1_Y84] 1.34, RRYVYYYSYLL [PTEN_Y177] 0.235, QRRYVYYYSYL [PTEN_Y176] 1.57, PSQRHYVYYYS [PTEN_Y174_R173H] 1.87, SKHHLYSDLQT [PTCHD1_Y84_R82H] 1.3, PNQRRYVYYYS [PTEN_Y174_S170N] 0.516, VMIYAYLLHRG [PTEN_Y138_C136Y] 0.902, EALDFCGEVRT [PTEN_Y155_Y155C] 1.09, SDVDLYQVRIA [PSMD9_Y70_T74I] 0.745, PSQRPYVYYYS [PTEN_Y174_R173P] 1.45, QRHYVYYYSYL [PTEN_Y176_R173H] 2.41, QRCYVYYYSYL [PTEN_Y176_R173C] 1.69, PSQRRNVYYYS [PTEN_Y174_Y174N] 0.403, PDDPSYSLVDD [PSTPIP2_Y323_N322S] 0.558, IMICAYLLHRG [PTEN_Y138_V133I] 2.39, PASWTYVRWFD [PTDSS1_Y274] 1.62, EALDFYGEVRI [PTEN_Y155_T160I] 1.55, PNQRRYVFFFS [PTEN_Y174_S170N_YF] 1.09, SSTAMYSAAGR [PSMB1_Y8_P11A] 0.556

Molecular target: SHP2 N-SH2 domain L43F
Assay: as above
Settings: peptide library: pTyr-Var

Enrichment score, inactive:
SKHRLYSDLQT [PTCHD1_Y84] 1.29, RRYVYYYSYLL [PTEN_Y177] 0.313, QRRYVYYYSYL [PTEN_Y176] 1.82, PSQRHYVYYYS [PTEN_Y174_R173H] 1.38, SKHHLYSDLQT [PTCHD1_Y84_R82H] 1.51, PNQRRYVYYYS [PTEN_Y174_S170N] 0.355, VMIYAYLLHRG [PTEN_Y138_C136Y] 0.936, EALDFCGEVRT [PTEN_Y155_Y155C] 0.938, SDVDLYQVRIA [PSMD9_Y70_T74I] 0.639, PSQRPYVYYYS [PTEN_Y174_R173P] 0.783, QRHYVYYYSYL [PTEN_Y176_R173H] 1.58, QRCYVYYYSYL [PTEN_Y176_R173C] 1.11, PSQRRNVYYYS [PTEN_Y174_Y174N] 0.416, PDDPSYSLVDD [PSTPIP2_Y323_N322S] 0.36, IMICAYLLHRG [PTEN_Y138_V133I] 1.81, PASWTYVRWFD [PTDSS1_Y274] 1.33, EALDFYGEVRI [PTEN_Y155_T160I] 1.54, PNQRRYVFFFS [PTEN_Y174_S170N_YF] 1.59, SSTAMYSAAGR [PSMB1_Y8_P11A] 0.473

Molecular target: SHP2 N-SH2 domain T42A
Assay: as above
Settings: peptide library: pTyr-Var

Enrichment score, inactive:
SKHRLYSDLQT [PTCHD1_Y84] 1.46, RRYVYYYSYLL [PTEN_Y177] 0.262, QRRYVYYYSYL [PTEN_Y176] 1.19, PSQRHYVYYYS [PTEN_Y174_R173H] 1.54, SKHHLYSDLQT [PTCHD1_Y84_R82H] 1.34, PNQRRYVYYYS [PTEN_Y174_S170N] 0.503, VMIYAYLLHRG [PTEN_Y138_C136Y] 0.836, EALDFCGEVRT [PTEN_Y155_Y155C] 0.834, SDVDLYQVRIA [PSMD9_Y70_T74I] 0.5, PSQRPYVYYYS [PTEN_Y174_R173P] 1.03, QRHYVYYYSYL [PTEN_Y176_R173H] 1.58, QRCYVYYYSYL [PTEN_Y176_R173C] 1.09, PSQRRNVYYYS [PTEN_Y174_Y174N] 0.671, PDDPSYSLVDD [PSTPIP2_Y323_N322S] 0.369, IMICAYLLHRG [PTEN_Y138_V133I] 1.89, PASWTYVRWFD [PTDSS1_Y274] 1.69, EALDFYGEVRI [PTEN_Y155_T160I] 1.07, PNQRRYVFFFS [PTEN_Y174_S170N_YF] 1.39, SSTAMYSAAGR [PSMB1_Y8_P11A] 0.377

Molecular target: SHP2 N-SH2 domain T52S
Assay: as above
Settings: peptide library: pTyr-Var

Enrichment score, inactive:
SKHRLYSDLQT [PTCHD1_Y84] 1.66, RRYVYYYSYLL [PTEN_Y177] 0.558, QRRYVYYYSYL [PTEN_Y176] 0.421, PSQRHYVYYYS [PTEN_Y174_R173H] 1.67, SKHHLYSDLQT [PTCHD1_Y84_R82H] 1.6, PNQRRYVYYYS [PTEN_Y174_S170N] 0.538, VMIYAYLLHRG [PTEN_Y138_C136Y] 0.974, EALDFCGEVRT [PTEN_Y155_Y155C] 0.878, SDVDLYQVRIA [PSMD9_Y70_T74I] 0.605, PSQRPYVYYYS [PTEN_Y174_R173P] 1.69, QRHYVYYYSYL [PTEN_Y176_R173H] 1.52, QRCYVYYYSYL [PTEN_Y176_R173C] 1.17, PSQRRNVYYYS [PTEN_Y174_Y174N] 0.673, PDDPSYSLVDD [PSTPIP2_Y323_N322S] 0.57, IMICAYLLHRG [PTEN_Y138_V133I] 1.82, PASWTYVRWFD [PTDSS1_Y274] 1.46, EALDFYGEVRI [PTEN_Y155_T160I] 1.24, PNQRRYVFFFS [PTEN_Y174_S170N_YF] 1.99, SSTAMYSAAGR [PSMB1_Y8_P11A] 0.383

Molecular target: SHP2 N-SH2 domain wild-type
Assay: as above
Settings: peptide library: pTyr-Var

Enrichment score, inactive:
SKHRLYSDLQT [PTCHD1_Y84] 1.44, RRYVYYYSYLL [PTEN_Y177] 0.331, QRRYVYYYSYL [PTEN_Y176] 0.686, PSQRHYVYYYS [PTEN_Y174_R173H] 1.3, SKHHLYSDLQT [PTCHD1_Y84_R82H] 1.19, PNQRRYVYYYS [PTEN_Y174_S170N] 0.411, VMIYAYLLHRG [PTEN_Y138_C136Y] 0.745, EALDFCGEVRT [PTEN_Y155_Y155C] 1.07, SDVDLYQVRIA [PSMD9_Y70_T74I] 0.7, PSQRPYVYYYS [PTEN_Y174_R173P] 0.726, QRHYVYYYSYL [PTEN_Y176_R173H] 1.89, QRCYVYYYSYL [PTEN_Y176_R173C] 1.7, PSQRRNVYYYS [PTEN_Y174_Y174N] 0.462, PDDPSYSLVDD [PSTPIP2_Y323_N322S] 0.567, IMICAYLLHRG [PTEN_Y138_V133I] 1.94, PASWTYVRWFD [PTDSS1_Y274] 1.03, EALDFYGEVRI [PTEN_Y155_T160I] 1.94, PNQRRYVFFFS [PTEN_Y174_S170N_YF] 0.829, SSTAMYSAAGR [PSMB1_Y8_P11A] 0.521
